Patent US7517874B2 (priority 2007, dated 2009)
Where two headings read alike, the source gives them in different places.

Biological target: human CB2 receptor (hCB2) (Homo sapiens, UniProt P34972)
Experiment: cell-based
Assay type: cell-based
Settings: for +/− HCB2: agonist or inverse agonist at hCB2

Chain of human CB2 receptor (hCB2) (P34972 whole entry): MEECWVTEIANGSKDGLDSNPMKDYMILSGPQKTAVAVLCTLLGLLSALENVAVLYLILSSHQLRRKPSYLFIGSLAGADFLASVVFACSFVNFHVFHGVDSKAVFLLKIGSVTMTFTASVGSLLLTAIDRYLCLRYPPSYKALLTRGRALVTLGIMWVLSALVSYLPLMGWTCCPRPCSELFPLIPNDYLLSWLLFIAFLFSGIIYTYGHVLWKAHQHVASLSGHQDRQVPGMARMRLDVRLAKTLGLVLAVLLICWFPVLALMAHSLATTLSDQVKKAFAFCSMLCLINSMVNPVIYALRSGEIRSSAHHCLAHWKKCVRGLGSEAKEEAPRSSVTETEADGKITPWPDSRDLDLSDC

`CNC(=O)[C@@H](NC(=O)c1nc(-c2c(F)cccc2F)n2c1CN(C)CCC2)C(C)(C)C` [Compound 601, (S)-3-(2,6-difluorophenyl)-N-(3,3-dimethyl-1-(methylamino)-1-oxobutan-2-yl)-8-methyl-6,7,8,9-tetrahydro-5H-imidazo[1,5-a][1,4]diazepine-1-carboxamide] was tested, and the “+/− HCB2” value was “+”.
For `CNC(=O)[C@@H](NC(=O)c1nc(-c2ccc(Cl)c(F)c2)n2c1CN(C)CCC2)C(C)(C)C` [Compound 373], the “+/− HCB2” value was “+”.
`CNC(=O)[C@@H](NC(=O)c1nc(-c2ccc(C3CC(=O)NN3)cc2)n2c1CN(C)CCC2)C(C)(C)C` (stereo partly drawn) [Compound 428, N-((S)-3,3-dimethyl-1-(methylamino)-1-oxobutan-2-yl)-8-methyl-3-(4-(5-oxopyrazolidin-3-yl)phenyl)-6,7,8,9-tetrahydro-5H-imidazo[1,5-a][1,4]diazepine-1-carboxamide] showed an EC50 of over 10000 nM.
`CN1CCn2c(-c3ccc(Cl)cc3F)nc(C(=O)Nc3ccc(S(=O)(=O)N4CCOCC4)cc3)c2C1` [Compound 219] was tested, and the EC50 (groups >100 nM-10 μM and >10 μM, cAMP, CHO-K1 hCB2, read-out: EC50 HCB2) was over 10000 nM.
In the case of `CNC(=O)[C@@H](NC(=O)c1nc(-c2ccccc2)n2c1CN(C(=O)OC(C)(C)C)CC2)C(C)(C)C` [Compound 1, (S)-tert-butyl 1-(3,3-dimethyl-1-(methylamino)-1-oxobutan-2-ylcarbamoyl)-3-phenyl-5,6-dihydroimidazo[1,5-a]pyrazine-7(8H)-carboxylate], the “+/− HCB2” value is reported as “−”.
For `CNC(=O)[C@@H](NC(=O)c1nc(-c2cc(C)ccc2Cl)n2c1CN(C)CCC2)C(C)(C)C` [Compound 335, (S)-3-(2-chloro-5-methylphenyl)-N-(3,3-dimethyl-1-(methylamino)-1-oxobutan-2-yl)-8-methyl-6,7,8,9-tetrahydro-5H-imidazo[1,5-a][1,4]diazepine-1-carboxamide], the “+/− HCB2” value was “+”.
For `CNC(=O)[C@@H](NC(=O)c1nc(-c2ccccc2)n2c1CN(S(=O)(=O)c1ccccc1[N+](=O)[O-])CC2)C(C)(C)C` [Compound 97, (S)-N-(3,3-dimethyl-1-(methylamino)-1-oxobutan-2-yl)-7-(2-nitrophenylsulfonyl)-3-phenyl-5,6,7,8-tetrahydroimidazo[1,5-a]pyrazine-1-carboxamide], the “+/− HCB2” value was “−”.
`CC(C)CN1CCn2c(-c3ccccc3)nc(C(=O)NN3CCCCC3)c2C1` [Compound 155, 7-isobutyl-3-phenyl-N-(piperidin-1-yl)-5,6,7,8-tetrahydroimidazo[1,5-a]pyrazine-1-carboxamide] showed an EC50 of over 10000 nM.
With `CNC(=O)[C@H](CC(C)(C)C)NC(=O)c1nc(-c2cc(F)c(F)cc2F)n2c1CN(C)CCC2` [Compound 555, (S)-N-(4,4-dimethyl-1-(methylamino)-1-oxopentan-2-yl)-8-methyl-3-(2,4,5-trifluorophenyl)-6,7,8,9-tetrahydro-5H-imidazo[1,5-a][1,4]diazepine-1-carboxamide] the “+/− HCB2” value was “+”.
In the case of `CNC(=O)[C@@H](NC(=O)c1nc(-c2ccccc2)n2c1CN(C(=O)c1ccco1)CC2)C(C)(C)C` [Compound 128, (S)-N-(3,3-dimethyl-1-(methylamino)-1-oxobutan-2-yl)-7-(furan-2-carbonyl)-3-phenyl-5,6,7,8-tetrahydroimidazo[1,5-a]pyrazine-1-carboxamide], the “+/− HCB2” value is reported as “−”.
For `Cc1noc([C@@H](NC(=O)c2nc(-c3ccccc3)n3c2CN(C)CC3)C(C)(C)C)n1` [Compound 87, (S)-N-(2,2-dimethyl-1-(3-methyl-1,2,4-oxadiazol-5-yl)propyl)-7-methyl-3-phenyl-5,6,7,8-tetrahydroimidazo[1,5-a]pyrazine-1-carboxamide], the “+/− HCB2” value was “+”.
`CNC(=O)[C@@H](NC(=O)c1nc(-c2ccccc2)n2c1CN(CC1CC1)CCC2)C(C)(C)C` [Compound 321, (S)-8-(cyclopropylmethyl)-N-(3,3-dimethyl-1-(methylamino)-1-oxobutan-2-yl)-3-phenyl-6,7,8,9-tetrahydro-5H-imidazo[1,5-a][1,4]diazepine-1-carboxamide] was tested, and the EC50 was over 10000 nM.
In the case of `CCNC(=O)[C@@H](NC(=O)c1nc(-c2ccccc2)n2c1CN(C)CCC2)C(C)(C)C` [Compound 478, (S)-N-(1-(ethylamino)-3,3-dimethyl-1-oxobutan-2-yl)-8-methyl-3-phenyl-6,7,8,9-tetrahydro-5H-imidazo[1,5-a][1,4]diazepine-1-carboxamide], the “+/− HCB2” value is reported as “+”.
With `CNC(=O)[C@@H](NC(=O)c1nc(-c2cc(F)c(F)cc2F)n2c1CN(C)CCC2)C1CCCCC1` [Compound 541, (S)-N-(1-cyclohexyl-2-(methylamino)-2-oxoethyl)-8-methyl-3-(2,4,5-trifluorophenyl)-6,7,8,9-tetrahydro-5H-imidazo[1,5-a][1,4]diazepine-1-carboxamide] the “+/− HCB2” value was “+”.
For `CCC/C=C/c1nc(C(=O)N[C@H](C(=O)NC)C(C)(C)C)c2n1CCCN(C)C2` [Compound 434, (S,E)-N-(3,3-dimethyl-1-(methylamino)-1-oxobutan-2-yl)-8-methyl-3-(pent-1-enyl)-6,7,8,9-tetrahydro-5H-imidazo[1,5-a][1,4]diazepine-1-carboxamide], the “+/− HCB2” value was “+”.
In the case of `CNC(=O)[C@@H](NC(=O)c1nc(-c2ccc(C)c(F)c2)n2c1CN(C)CCC2)C(C)(C)C` [Compound 360, (S)-N-(3,3-dimethyl-1-(methylamino)-1-oxobutan-2-yl)-3-(3-fluoro-4-methylphenyl)-8-methyl-6,7,8,9-tetrahydro-5H-imidazo[1,5-a][1,4]diazepine-1-carboxamide], the “+/− HCB2” value is reported as “+”.
In the case of `CN1CCn2c(-c3ccccc3)nc(C(=O)N[C@@H](CO)C(C)(C)C)c2C1` [Compound 67, (R)-N-(1-hydroxy-3,3-dimethylbutan-2-yl)-7-methyl-3-phenyl-5,6,7,8-tetrahydroimidazo[1,5-a]pyrazine-1-carboxamide], the “+/− HCB2” value is reported as “+”.
`CCCNC(=S)N1CCn2c(-c3ccccc3)nc(C(=O)N[C@H](C(=O)NC)C(C)(C)C)c2C1` [Compound 195, (S)-N-(3,3-dimethyl-1-(methylamino)-1-oxobutan-2-yl)-3-phenyl-7-(propylcarbamothioyl)-5,6,7,8-tetrahydroimidazo[1,5-a]pyrazine-1-carboxamide] showed an EC50 of over 10000 nM.
For `CNC(=O)[C@@H](NC(=O)c1nc(-c2cccc(C(F)(F)F)c2)n2c1CNCC2)C(C)(C)C` [Compound 3, (S)-N-(3,3-dimethyl-1-(methylamino)-1-oxobutan-2-yl)-3-(3-(trifluoromethyl)phenyl)-5,6,7,8-tetrahydroimidazo[1,5-a]pyrazine-1-carboxamide], the EC50 was over 10000 nM.
`CNC(=O)[C@H](CC(C)(C)C)NC(=O)c1nc(-c2ccc(Cl)c(F)c2)n2c1CN(C)CCC2` [Compound 550, (S)-3-(4-chloro-3-fluorophenyl)-N-(4,4-dimethyl-1-(methylamino)-1-oxopentan-2-yl)-8-methyl-6,7,8,9-tetrahydro-5H-imidazo[1,5-a][1,4]diazepine-1-carboxamide] showed an EC50 of over 10000 nM.
`CNC(=O)[C@@H](NC(=O)c1nc(/C=C/CN2CCCC2)n2c1CN(C)CC2)C(C)(C)C` [Compound 288, (S,E)-N-(3,3-dimethyl-1-(methylamino)-1-oxobutan-2-yl)-7-methyl-3-(3-(pyrrolidin-1-yl)prop-1-enyl)-5,6,7,8-tetrahydroimidazo[1,5-a]pyrazine-1-carboxamide] was tested, and the “+/− HCB2” value was “−”.
